# Test results reported in PubChem BioAssay AID686971 (National Center for Advancing Translational Sciences (NCATS), 2013).
# About 7,500 (2.1%) of roughly 360,000 compounds were called active. Inconclusive results, whose numbers are uncertain, are shown with a selection of clear calls. The call rests on the fitted dose curve; in most records, active means well fitted cell-killing curve with a large enough effect; inconclusive means small, poorly fitted or top-dose-only effect, or effect the other way, or another doubt; inactive means no such curve, though single readings can be large or run the other way. Potencies of inconclusive entries are left out as doubtful fits.
# Assay: qHTS for induction of synthetic lethality in tumor cells producing 2HG: qHTS for the HT-1080-IDH1KD cell line;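 on activity, negative = toxicity: 0% = DMSO wells and -100% = cell-free medium wells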
# Details: HT-1080 IDH1 knockdown viability, ATP luminescence, 48 h; activity, negative = toxicity: at 46.1 µM (top of the series) unless noted
# How it was run: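 % activity derives from luminescence (CellTiter-Glo), normalised to DMSO and no-cell wells. HT-1080-IDH1KD cells, 750/well, had 48 h compound exposure at 37 °C.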
# Potency means the concentration at half of the fitted maximal effect; tags describe the fitted curve by direction and shape.
Compound,Potency,"activity, negative = toxicity"
CCCCC1Cc2[nH]c(=S)[nH]c(=O)c2C(c2cccc3ccccc23)O1 (stereo not given),"inconclusive [cytotoxic, single point]",–
Oc1ccc(Nc2nc(-c3ccc(O)cc3)cs2)cc1,"inconclusive [cytotoxic, single point]",–
N=c1sc2ccccc2n1-c1ccccc1,"inconclusive [cytotoxic, single point]",–
CCOc1cc(N2CCOCC2)c(OCC)cc1NC(=O)c1ccccc1N1CCCC1=O,inactive,–
COc1cccc(C2=NOC(C(=O)NCc3ccco3)C2)c1 (stereo not given),"inconclusive [cytotoxic, partial curve]",–
Cn1c(-c2ccc(C(=O)c3ccccc3)s2)nc2ccccc21,"inconclusive [cytotoxic, single point]",–
NNC(=O)c1cc2c(s1)CCCCCC2,"inconclusive [cytotoxic, partial curve]",–
COc1cc(NC(C)=O)ccc1-c1cc2ccccc2oc1=O,"inconclusive [cytotoxic, single point]",–
NC(=O)N/N=C/c1cn(-c2ccccc2)nc1-c1cccs1,active: 10.3 µM,–
COc1cc(SC)ccc1C(=O)Nc1nc(C)cs1,"inconclusive [cytotoxic, single point]",–
COc1ccc(NC(=O)CNC(=O)c2ccco2)cc1S(=O)(=O)Nc1cc(C)ccc1Br,"inconclusive [cytotoxic, single point]",–
CC(C)NC(=O)N1Cc2cc(C(=O)NC3CCCC3)nc(-c3cccc(-c4cccnc4)c3)c2[C@@H]1CCO,inactive,–
CN(C(=O)COC(=O)c1ccccc1Nc1ccccc1)c1c(N)n(Cc2ccccc2)c(=O)[nH]c1=O,"inconclusive [cytotoxic, partial curve]",–
Cc1nn(-c2ccccc2)c(Cl)c1C(=O)N1CCN(c2ncnc3c2cnn3-c2ccccc2)CC1,"inconclusive [cytotoxic, single point]",–
COc1cc(OC)c(OC)cc1CNC(=O)c1ccc(COc2ccccc2)cc1,inactive,–
CC(=O)N(c1ccc(N(C(C)=O)S(=O)(=O)c2ccccc2)cc1)S(=O)(=O)c1ccccc1,–,inconclusive: -24.7% [cytotoxic]
CN(C)c1ccc(NC(=O)c2ccc(Cn3cc([N+](=O)[O-])cn3)cc2)cc1,"inconclusive [cytotoxic, full curve]",–
COC(=O)[C@@]12C[C@@H](CC(=O)N3CCN(C(=O)c4ccco4)CC3)C(=O)N(Cc3ccccc3)C1=CCC(C)(C)C2,inactive,–
CCOC(=O)c1c(C)n(-c2ccccc2)c2ccc(OCCN(C)C)cc12,"inconclusive [cytotoxic, single point]",–
CC1=NN(C(=O)c2ccoc2C)C(O)(C(F)(F)F)C1 (stereo not given),inactive,–
O=C(CN1CCCCCC1)N1c2ccccc2Sc2ccc(C(F)(F)F)cc21,active: 11.2 µM,–
COc1ccc(C=C2SC(=S)N(CCCN3CCOCC3)C2=O)c(OC)c1,inactive,–
C=CCOC(=O)C1=C(C)NC(SC)=C(C#N)C1c1cccs1 (stereo not given),active: 18.4 µM,–

Compound,Potency,"activity, negative = toxicity"
Cc1ccc(-c2cc(C(=O)Nc3ccc4c(c3)OCCO4)c3ccccc3n2)cc1,"inconclusive [cytotoxic, partial curve]",–
CCn1c(=O)cc(OCC(=O)N2CCN(c3cccc(C(F)(F)F)c3)CC2)c2ccccc21,inactive,–
CCOc1ncccc1C(=O)Nc1ccc(F)c(F)c1,inactive,–
CC1CCCC(NC(=O)C2N(CCCN3CCCC3)C(=O)C3C(C(=O)Nc4ccc(Cl)cc4)C4C=CC32O4)C1C (stereo not given),"inconclusive [cytotoxic, partial curve]",–
CC(=O)Nc1ccc(C2=NNC(=Nc3ccc(S(=O)(=O)N4CCOCC4)cc3)SC2)cc1,"inconclusive [cytotoxic, single point]",–
O=C(Nc1cc([N+](=O)[O-])ccc1F)c1ccc2c(c1)OCCO2,"inconclusive [rising, single point]",–
Cc1nc(NCc2ccco2)c2c(C)c(C)sc2n1,active: 2.82 µM,–
CN(C)c1ccc(CN(C(=O)c2ccc(Cl)c([N+](=O)[O-])c2)C2CCS(=O)(=O)C2)cc1 (stereo not given),"inconclusive [cytotoxic, single point]",–
CCN(CC)CCCN=C1N[C@@H](c2cccc(C(F)(F)F)c2)C(C(=O)OC)=C(C)N1CC,"inconclusive [cytotoxic, partial curve]",–
Cc1ccc(NC(=O)c2cc(C)n(-c3ccccc3)c2C)cc1,"inconclusive [cytotoxic, partial curve]",–
CC(C)c1onc(C(=O)N(C)Cc2ccccc2)c1[N+](=O)[O-],inactive,–
CCc1ccc(NC(=S)/N=C(\N)Nc2nc(C)c3cc(CC)ccc3n2)cc1,active: 10.3 µM,–
COc1cc(OC)cc(C(=O)N2CC(=O)Nc3ccccc32)c1,"inconclusive [cytotoxic, full curve]",–
c1ccc(OCCNc2ccn3nc(-c4ccccc4)cc3n2)cc1,inactive,–
O=C(CSCc1ccccc1)N/N=C/c1ccccc1OCc1ccccc1,"inconclusive [cytotoxic, single point]",–
O=C1C(Cl)=C(NCc2cccnc2)C(=O)c2ccccc21,"inconclusive [cytotoxic, single point]",–
O=[N+]([O-])c1ccc2nc(-c3ccccn3)[nH]c2c1,"inconclusive [cytotoxic, partial curve]",–
NC(=O)Cc1nc(-c2ccccc2)cs1,–,inconclusive: 31.9%
COc1ccc(C2=CC(=O)CC(c3ccc(F)cc3)C2)cn1 (stereo not given),inactive,–
NC(=S)n1[nH]c(-c2ccc([N+](=O)[O-])cc2)c(N=Nc2cccc(Cl)c2)c1=O,"inconclusive [cytotoxic, partial curve]",–
CCCc1cc(=O)[nH]c(NCc2ccc(Cl)cc2)n1,"inconclusive [cytotoxic, single point]",–
N#CC(C(=O)Nc1ccc(Cl)c(Cl)c1)=C1Nc2ccccc2N1,"inconclusive [cytotoxic, single point]",–
